This passage reports self-cleavage results from the RNAGym collection of RNA variant scans (doi:10.7554/elife.90254).

B1: LINE1-mini (parent)
chain: GGCAGAGCUCAACACAGCGUGGCAAAGUGGCUGUGGCUAGACUGCC

The source gives no read counts; variants with many changes may rest on few reads.

The variants in this data set derive from B1. The experiment in a line: self-cleavage, relative activity (ratio to wild type); higher = more cleavage; in vitro, sequencing; the parent is a self-cleaving ribozyme.
As for C10A G27U C37A, the self-cleavage is 0.01. As for U28C G30U G40U, the self-cleavage came out at 0.03. The same measure for C23A G35A G40A: 0.05; for G7A A16G G27C U28G G35A U43A: 0.1; for G1A G2A G7C: 1.61. With A12G G29U G35C, the self-cleavage was 0.02.

Take C3U C23U G29U U32G U38A: the self-cleavage was 0.06. On to C13A A24U G30U G36U A39C, for which the self-cleavage came out at 0.21. For the variant U9G G27U G36C, the self-cleavage was 0.09. As to A4U G21U G44U, the self-cleavage was 0.13. G22U A26G C45U: the self-cleavage turned out to be 0.75. Under C3G G7A G22U G30A G33A stands 0.17. U9G A25C U28G A41C: the self-cleavage is 0.07. Consider A12U C15G C18A A41C, for which the self-cleavage was found to be 0.03.

With G21U A26G U38C G40A, the self-cleavage turned out to be 0.27. The same measure for G2U A4C G17C G30A A39C: 0.02; for C10U G29A U38A: 0.05.

Turning to G2U A16C G29C, the self-cleavage was determined as 0.07. A26C G36U C46A: the self-cleavage came out at 0.11. Regarding A11G A24C C46U, the self-cleavage came to 0. Under G1A A16G G40C stands 0.04.

For the variant G1U G2U A39U, the self-cleavage worked out at 0.05. Take G5A G27C G30A C46A: the self-cleavage is 0.05. Under C10A G17U G21U stands 0.15; under G2U A4G G17A U20A, 0.05. For the variant C3U C23U U34G G36U A39G G44U, the self-cleavage is 0.07.

As for C3U C8A U28C C31G, the self-cleavage amounted to 0.16. Consider A4U C15A G19A C23A A25G A26U, for which the self-cleavage is 0.07. Turning to A11C C13A U28C, the self-cleavage was 0. Under G17A G21U A39C stands 0.03; under A11U A14U A24C G27A U38C C45A, 0.01; under G1A C23G A25G U28G C31G G33C U34C, 0.07. The same measure for A6G C8A C37A G40C: 0.01. With C3A A25G U28A A41U, the self-cleavage was 0.01. The same measure for A16G G29U U43C: 0; for G2A C15G G44C: 0.03; for A4C A11C G22A C45A: 0.01. Consider A6C A25C A26U, for which the self-cleavage is 1.51. The same measure for A4G C15A C31A C37A A39C: 0.23.

Regarding G1U G7C A14G U28A, the self-cleavage stood at 0.03. As to C18A A26U C31U U34A, the self-cleavage amounted to 0.02. Regarding G22U C23A G30U, the self-cleavage was determined as 0.96. Regarding G19U C31A C37U, the self-cleavage turned out to be 0.04. The same measure for A4G G30U C45G: 0.25. The same measure for G19U A25C C37G G40U: 0.1; for U20G U28A U38G: 0.02; for U9G C31G G33A: 0.02.

Consider A12G U32C U38A C42U, for which the self-cleavage stood at 0.15. Under G2C G5U G36U stands 0.03; under A6U A12U A16G G17A, 0.02; under A11U A16G U32G, 0.02. Under G2C G27U U43G stands 0. As for G5A G27U C37A U43A G44U, the self-cleavage amounted to 0.17. Turning to A14C U20A C37A A41U, the self-cleavage is 0.05. As to A6C A12U C13U, the self-cleavage stood at 0.05.

As to A11C G19U G27U G33C U38C, the self-cleavage is 0.02. As to A6U C23U G27A, the self-cleavage is 2.46. The same measure for C3A A14G G21U A26U U28C U32C C37G C42A: 0.04.

Consider C13A C31G A41C, for which the self-cleavage is 0.07. For the variant C3U A12G A16C G19C, the self-cleavage was found to be 0.04.

Turning to C3G C10U U20G G35A, the self-cleavage turned out to be 0.07. Under G17C U32G C37U stands 0.02; under G1A G19U G21C G33C, 0.13. For G1U C3A G5U G33A, the self-cleavage came out at 0.37. Take G5C C8A C15U U38C A39U: the self-cleavage is 0.07. Under A4G C10A C13U C31A stands 0.02. Under A6U G22U G35A A39U stands 0.14; under G2C C13G G19C G21A C31A C46U, 0.17; under G21A G36U C42A, 0.11.

Take A4U C13U G19U G33U: the self-cleavage was 0.08.

As for A14C G29U G33A, the self-cleavage worked out at 0.11. Regarding C10A G27A A39U, the self-cleavage was 0.22. Under G19C U20G C37G A41U stands 0.01.

For G7C A26U G33A C46G, the self-cleavage is 0.1. Under U20C A24U A25U stands 1.19; under A4U A6G A25U G30A, 0.28. In the case of C3U G5A G7U A25G G36U, the self-cleavage came to 0.03. With U9G C23A G40A, the self-cleavage was found to be 0.06. The same measure for G21C C23U U28C: 1.17.

Consider C10A C31A C46G, for which the self-cleavage is 0.01. The same measure for G19U U20C U32G U43G: 0. The same measure for C10G A16U G19A A41G: 0.02; for G2A A4C U38A G44U: 0.15; for C15A G40U A41C: 0.05. The same measure for C8A A14G C31U: 0.04; for C3A C8U G22C G44U: 0.92. In the case of C15A G22C U34C G35C, the self-cleavage amounted to 0.02. Under C3G A4G G22A stands 0.1; under C3G U9C G21C G22A A25G U28A G30U U43A, 0.01; under C15A G19C A25U A26C C46G, 0.16. The same measure for A16U G27C A39C C42A: 0.07; for G5A C13A G19U G27A G40C: 0.04. A4C C15G G21C: the self-cleavage turned out to be 0.02.

Turning to C8A A26G C31U, the self-cleavage came to 0.09. A4U C37A C45G: the self-cleavage was 0.03. As to A12U G19C C31A, the self-cleavage came to 0.06.

Take C10U A11C U28C C37A: the self-cleavage came out at 0.02. As for G17U G19A G30C C45A, the self-cleavage stood at 0.02. C10A G29C C37A U38A: the self-cleavage stood at 0.04. The same measure for C3A A6G A39C: 0.06; for C13U C18A A26G U34C: 0.02; for G5C A6U A25C: 0.07. C13A U28C G36U C46G: the self-cleavage came to 0.03. G7C C15U G30U: the self-cleavage stood at 0.07. Under A6G A24U A39C stands 0.06; under G21A G27U C31A, 0.21. Under A4U G21A G36A stands 0.15.

Take A4C A14C U28G A41G: the self-cleavage came out at 0.02.

Consider C10G G35U G44A, for which the self-cleavage came to 0.07. Consider C3G C8U C37G, for which the self-cleavage was determined as 0.96. Under G7U G17U C18A G21C C45A stands 0.04; under C15A G27U U34G G35C, 0.02. Regarding C23G G27A C42A C46U, the self-cleavage came to 0.03. As for C3A C13U U20A G35C, the self-cleavage came out at 0.07. The same measure for A12U C23G U28G G30U U38C C42A: 0.02; for C8A C10A U28G G36A: 0; for A12U G19A C23A: 0.18.

Regarding G2U C8U U20C G21A, the self-cleavage was found to be 0.01. Under U20G G22C C31G A41U stands 0.06; under C8A G30U G40U, 0.1. Under G7U C31U G35A U38C A39G stands 0.12. Under A6G A39U G40U stands 0.15. For the variant G5C A14G G30C G36U A41G, the self-cleavage came to 0.31.

With G17U C18G G30A, the self-cleavage came out at 0.67.

On to A26U G30A C31U G36U, for which the self-cleavage is 0.14. Under G17C C37U C46G stands 0.01; under A14U G17U C18U G44A, 0.07. For the variant A4U G29A G30A G36C, the self-cleavage worked out at 0.07. Take G7A A12C U28C C45U: the self-cleavage was 0. On to A4C C13A G27U, for which the self-cleavage was found to be 0.09. For C10A G21C C46A, the self-cleavage worked out at 0.02. Under U20G G35U G36U stands 0.16; under G1C A4U G29U G35U, 0.04; under C3G C15A G22C C46G, 0.1. With G22U G36A G40U C45U, the self-cleavage stood at 0.26. Under A6U U9G A11U G35U G44U stands 0.01; under A6U C8A C10G U34A C46U, 0.04; under C10A A12G G19A G35C, 0. As to U20A G40A U43A C45A, the self-cleavage came out at 0.01. Under A12C G17C C18A G22A G40C stands 0.02. In the case of C13A A14C G22A C46U, the self-cleavage was 0.05.

On to G2U G7U C10G A12C C18G U28A, for which the self-cleavage amounted to 0.01.

On to G1A G21C C31A, for which the self-cleavage is 0.09. The same measure for C10G C23G A24U G33U U34C: 0; for A14C U20C G30U: 0.01. A41C G44A C45G C46A: the self-cleavage was 0.05. Under C8A U20G A39C C42G stands 0.19; under A4C A16C A24U U32C C37U, 0.02; under G5U C8A A39C A41U C46G, 0.31. Under G2C G17C G36A stands 0.32. Under C3G G19A C23U U34A stands 0.14; under G17C U20C C23A A24U, 1.31. Turning to G7A A14U G21C G33A, the self-cleavage worked out at 0.07. Take C10G A25G U28C: the self-cleavage is 0.05. U9A A11G C45G: the self-cleavage is 0.04.

Turning to G1A G7U A24C G30U A41C, the self-cleavage stood at 0.06.

As for A16U G19C A41U, the self-cleavage came to 0.06. The same measure for A4G A14U A24G A41U U43A: 0.18; for G1U C10A C42A: 0; for G1U A12U C37A A39U: 0.08. Take G29A G36A U38C: the self-cleavage was determined as 0.17. The same measure for A26U U38C U43C: 0.03. Take G1U A6G C18G U34G: the self-cleavage turned out to be 0.01. Under A4G A12U G17U C31U U34C stands 0.2; under A4C C13A G22U G27C C46U, 0.08; under C3A U34C C45A, 0.04. Under A4G C8G G19C stands 0.03.
